Columns and labels:
B2M locus = type: cell-based; conditions: HEK293T, LTRP5 constructs without ADD domain, scaffold 316 spacer 7.165, days 6/7 to 26/27
HBEGF = type: cell-based, human; conditions: fold change in abundance of each domain in the library before and after diphtheria toxin selection; dXR repression of the HBEGF gene; criteria p-value <0.01 and log2(fold change) >2

Molecule | B2M repression compared with LTRP5-ZIM3 (B2M locus) | Log2 (fold change) (HBEGF)
DOMAIN_20505: one of the top nine most effective repressor domains (protein, listed as Chlorocebus sabaeus) SQESVAFEDVAVYFTTKEWAIMVPAERALYRDVMLENYEAVAFVAVPPTSKPALVSHLEQGKESCFIRPPGVLSRSDWRAG | most effective | 3.4989
DOMAIN_15507: one of the top nine most effective repressor domains (protein, Cebus imitator) SKAPITFGDLAIYFSQEEWEWLSPIQKDLYEDVMLENYRNLVSLGLSFRRPNVITLLEKGKAPWMVEPARRRRGPDSGSKV | most effective | 3.8531
DOMAIN_718 (protein, listed as Pan paniscus) GSLEEGRRATGLPAAQVQEPVTFKDVAVDFTQEEWGQLDLVQRTLYRDVMLETYGHLLSVGNQIAKPEVISLLEQGEEPWS |  | 3.9
DOMAIN_30173: one of the top nine most effective repressor domains (protein, Phyllostomus discolor) VAFRDVIVDFTQEEWQQLKPAQKDLYRDVMMEIYWNLVSLDLETEGDMNEPDPEKDSWEDRTSIVVVEGLMRNGAQGYACEKAGIQGCRV | most effective | 2.2538
DOMAIN_10123: one of the top nine most effective repressor domains (protein, listed as Rattus norvegicus) ALVTFEDVAVRFTQEEWALLDPSQKILYRDVMRETYRNLTSVGINWECWDLEACFRSLGRNLRVQVVKRKCELTNSGPCAE | most effective | 3.6356
DOMAIN7694e: one of the top nine most effective repressor domains (protein, listed as Columba livia) QDVVTFKDVAIYFSPEEWVRLSAGQRELYQEVMLDNYELVTSLDRESKLLYKMDPEEESCEGVPYSSADSGAPDSSSTSAC | most effective | 
DOMAIN_7694 (protein, listed as Columba livia) QDVVTFKDVAIYFSPEEWVRLSAGQRELYQEVMLDNYELVTSLDRESKLLYKMDPEEESCEGVPYSSADSGAPDSSSTSAC |  | 3.7111
DOMAIN_27604: one of the top nine most effective repressor domains (protein, listed as Ailuropoda melanoleuca) LLTFEDVAVSFSEEEWELLDPPQKTLYNDVMQENYETVISLGLKLKNDTGNDQPISISALEMQASGSKVLRKARMKVAQKT | most effective | 2.8198
DOMAIN_17905: one of the top nine most effective repressor domains (protein, Pan troglodytes) EMGLLTFRDIAIEFSLEEWQCLDCAQRNLYRDVMLENYRNLVSLGIAVSKPDLITCLEQNKESQNIKRNKMVAKHPVMHSH | most effective | 2.5038

— patent publication US12594349B2, “Compositions and methods for the targeting of PCSK9” (Scribe Therapeutics Inc., priority 2022, dated 2026)
